The list shows a part of the results. The energies were worked out here from pooled read counts, against the library average; single values are noisy.
What follows are sequences tested against T1, Pho4 (S. cerevisiae) (UniProt P07270) (assay: relative binding free energy (BET-seq); higher = weaker binding). Conditions: reference: library average.
T1 sequence: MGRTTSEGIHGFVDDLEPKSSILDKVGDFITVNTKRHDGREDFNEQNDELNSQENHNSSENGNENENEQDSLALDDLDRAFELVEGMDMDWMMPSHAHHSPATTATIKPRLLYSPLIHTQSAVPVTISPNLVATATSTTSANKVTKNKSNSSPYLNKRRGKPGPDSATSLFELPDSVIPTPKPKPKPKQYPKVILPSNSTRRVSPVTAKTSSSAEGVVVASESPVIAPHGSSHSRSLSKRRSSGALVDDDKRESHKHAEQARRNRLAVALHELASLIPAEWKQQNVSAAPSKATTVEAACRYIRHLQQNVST

| Sequence | relative binding free energy [kJ/mol] |
| --- | --- |
| AAGCGCACGTGGGGCA | -0.92 |
| CGTGGCACGTGCAGGG | -0.586 |
| TCTTTCACGTGGCTTG | 1.21 |
| TTAAGCACGTGTAGGT | -0.46 |
| CAGTGCACGTGGTGAG | -1.13 |
| ACTGGCACGTGTGGTC | -0.377 |
| TGAATCACGTGGTGGC | 0.711 |
| TGAGACACGTGTATGT | 0.126 |
| TGAGCCACGTGTAGGG | -0.251 |
| TGGAGCACGTGTGTTG | 0.0837 |
| TGCTGCACGTGGAGGA | -0.46 |
| AGTTTCACGTGGCCGG | 1 |
| AGATACACGTGGTGGG | 0.0418 |
| GTAACCACGTGGTGTG | -0.167 |
| GAGGGCACGTGGAGCT | -0.293 |
| TTCATCACGTGTTATA | 0.335 |
| CCTATCACGTGTTGGT | 0.711 |
| GAGGTCACGTGTGTTT | 0.711 |
| GTTAACACGTGTTAAG | 0.418 |
| TGATGCACGTGTGGAT | 0.711 |
| TGTAACACGTGGAGTG | 0.0837 |
| TATCGCACGTGTGGAG | 0.628 |
| TGGGCCACGTGATGTG | 0.209 |

| Sequence | relative binding free energy [kJ/mol] |
| --- | --- |
| GGGTGCACGTGGTCGT | -0.711 |
| TAGAGCACGTGTTTGT | -0.335 |
| TGGTTCACGTGACAGT | 1.34 |
| GTAGGCACGTGTCATA | 0.126 |
| ATGTGCACGTGTGCAA | -0.335 |
| AGGTGCACGTGGGCAA | -1.3 |
| CGTTTCACGTGTTTGT | 1.13 |
| ACTTTCACGTGTCGGT | 0.669 |
| ATTGGCACGTGAAGTA | 0.418 |
| GATCGCACGTGATAGG | 0.962 |
| TTAGGCACGTGCGTTG | -0.418 |
| CTGGACACGTGTTGTA | -0.126 |
| GTAATCACGTGGTTTA | 0.879 |
| TTGAACACGTGAGGCG | 1.05 |
| GGCGTCACGTGAGCTG | 1.46 |
| GAGGCCACGTGGTTGA | -0.167 |
| TCATACACGTGTTGGT | 0.418 |
| GGACGCACGTGAGAGT | 1 |
| AATCTCACGTGTGTGG | 1.21 |
| TTTACCACGTGATTTG | 0.92 |
| GAGTTCACGTGGGAAG | 0.962 |
| TTGTTCACGTGAGCTT | 1.51 |
| GTAGGCACGTGATAGT | 0.46 |

| Sequence | relative binding free energy [kJ/mol] |
| --- | --- |
| TGGATCACGTGTGATT | 1.46 |
| TGACGCACGTGGAAGG | 0.335 |
| GTAGGCACGTGCTGGC | -0.418 |
| AGTCGCACGTGCGGTT | -0.753 |
| CATTGCACGTGGTGTG | -0.418 |
| TGTGCCACGTGGGAGT | -1.09 |
| TTTAGCACGTGTATGC | -0.0837 |
| GCTTGCACGTGGCGGG | -0.126 |
| GGTAACACGTGTAAGT | 0.46 |
| TGGTCCACGTGTCTTG | 0.544 |
| AAGTTCACGTGTGAGA | 1.3 |
| ATGTTCACGTGAAATT | 1.34 |
| TTATACACGTGCAGGT | 0.167 |
| GTTTTCACGTGTAATA | 1.17 |
| GATATCACGTGATTGG | 0.711 |
| TTACTCACGTGTTGTG | 0.669 |
| TGCGACACGTGTAAGT | 1.26 |
| CTGGGCACGTGGGGCA | -0.795 |
| CGCGTCACGTGGGAAG | -0.209 |
| AAATGCACGTGGGTTA | -0.418 |
| GCTTTCACGTGTGGAT | 0.962 |
| GGCATCACGTGTGTGA | 0.92 |
| GGGTTCACGTGATGAC | 1.59 |

| Sequence | relative binding free energy [kJ/mol] |
| --- | --- |
| TATTGCACGTGAATTA | 0.502 |
| TTCGTCACGTGCATGG | 0.0837 |
| TTCTGCACGTGATAAG | 0.753 |
| GTAGACACGTGGGCGG | 0.126 |
| AACTTCACGTGGAGTT | 1.38 |
| CTTATCACGTGTGAGG | 0.293 |
| TTCGTCACGTGGTTGA | 0.293 |
| TCGTACACGTGGGCGG | -0.544 |
| GGATTCACGTGGTGGG | 1.21 |
| GGCGGCACGTGCGGAT | -0.335 |
| CTTGGCACGTGTTCGT | -0.209 |
| AGGTCCACGTGTTAGG | 0.0418 |
| TGGAACACGTGAAAGT | 0.92 |
| TGAGTCACGTGTAAGA | 1.34 |
| TTATCCACGTGGATTG | 0.0837 |
| ATGATCACGTGGACGG | 0.795 |
| GTACGCACGTGTGAGG | -0.0837 |
| GGTTCCACGTGGGGGG | 0 |
| AGACTCACGTGTTTGT | 0.669 |
| GTGCCCACGTGGGGGT | -1.13 |
| GGTATCACGTGAAAGT | 1.97 |
| CGGTTCACGTGTTATA | 0.879 |
| GTGTCCACGTGTGGGA | 0.711 |

| Sequence | relative binding free energy [kJ/mol] |
| --- | --- |
| AATGACACGTGAGTGC | 1.3 |
| CAATGCACGTGGGTTG | -0.628 |
| ATTGGCACGTGCACAG | 0.0418 |
| TAGGACACGTGGTAGG | -0.0837 |
| TTTGGCACGTGTTCCT | -0.167 |
| GTTCTCACGTGCGGTA | 1 |
| AGTGTCACGTGTGTTT | 0.293 |
| GATTGCACGTGCTTGA | 0.293 |
| ATTAGCACGTGAAGAT | 0.92 |
| CGTGGCACGTGATGTT | 0.0418 |
| AATATCACGTGTTTGA | 0.879 |
| ATATTCACGTGGACTT | 1.59 |
| TCTGGCACGTGTGTGC | -0.46 |
| CGTTGCACGTGAGTTA | 0.837 |
| AGTGGCACGTGATAGC | 0.335 |
| TAAGACACGTGGTGGA | -0.126 |
| ATCGTCACGTGAGGAT | 2.01 |
| TGGGGCACGTGTTAAC | -0.46 |
| TGGCGCACGTGGGTCG | -1.38 |
| TGTAGCACGTGTTTAC | -0.502 |
| AGGAACACGTGTTTTA | -0.0837 |
| ACTGGCACGTGAGAGG | 0 |
| TTTATCACGTGTTGGG | 1.05 |

— the BET-seq Pho4 binding data (Le et al. 2018)
